In the supplement of paper PMC9151546:
Single values are uncertain, as repeats are few or missing.

Columns and labels:
CHO-K1 [1] = experiment: micronucleus frequency (% of nucleated events); higher = more micronuclei (genotoxic)
CHO-K1 [2] = experiment: relative survival (nuclei to bead ratio vs DMSO control) (% of vehicle control); higher = more surviving cells
Protocol: (§1)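 Flow-cytometric in vitro micronucleus assay (Litron MicroFlow) in CHO-K1 cells in 96-well plates, 19 concentrations (4.5-200 µM, n=1 per concentration). Without S9, cells were exposed for 24 h and sampled at 48 h. With Aroclor 1254-induced rat liver S9, cells were exposed for 3-4 h and sampled at 27-28 h. Read-outs are %MN and %hypodiploid nuclei relative to nucleated events, and relative survival as the nuclei-to-bead ratio versus the 1% DMSO vehicle control (x100).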

CHO-K1 [3] = experiment: hypodiploid nuclei frequency (% of nucleated events); higher = more hypodiploid events (aneugenic)
Protocol: as §1
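For hypodiploid nuclei frequency (% of nucleated events) in this document: hypodiploid nuclei gated on a flow cytometer with 488 nm excitation after SYTOX Green staining, cultures at 37 °C, positive controls vinblastine without S9 and cyclophosphamide with S9.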
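For micronucleus frequency (% of nucleated events) in this document: cells lysed with nuclei stained by SYTOX Green, then micronucleus-gated events counted against nucleated events by flow cytometry with 488 nm excitation.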
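For relative survival (nuclei to bead ratio vs DMSO control) in this document: Lysed-cell nuclei stained with SYTOX Green and counted against counting beads by flow cytometry at 488 nm excitation, with vinblastine (no S9) and cyclophosphamide (plus S9) as positive controls.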

ClC1(Cl)C2(Cl)C3(Cl)C4(Cl)C(Cl)(Cl)C5(Cl)C3(Cl)C1(Cl)C5(Cl)C24Cl (centres undefined) [Mirex]
Details | hypodiploid nuclei frequency, CHO-K1 [3] [%] | micronucleus frequency, CHO-K1 [1] [%] | relative survival, CHO-K1 [2]
concentration: 4.5 (µM), S9 metabolic activation: with S9, exposure time: 3-4 hours | 0.24 | 1.24 | 98.6
concentration: 4.5 (µM), S9 metabolic activation: without S9, exposure time: 24 hours | 0.56 | 1.68 | 117
concentration: 5.63 (µM), S9 metabolic activation: with S9, exposure time: 3-4 hours | 0.28 | 1.1 | 70.5
concentration: 5.63 (µM), S9 metabolic activation: without S9, exposure time: 24 hours | 0.48 | 1.24 | 100
concentration: 7.04 (µM), S9 metabolic activation: with S9, exposure time: 3-4 hours | 0.1 | 1.36 | 71.7
concentration: 7.04 (µM), S9 metabolic activation: without S9, exposure time: 24 hours | 0.54 | 1.38 | 134
concentration: 8.8 (µM), S9 metabolic activation: with S9, exposure time: 3-4 hours | 0.22 | 1.16 | 94.2
concentration: 8.8 (µM), S9 metabolic activation: without S9, exposure time: 24 hours | 0.48 | 1.26 | 119
concentration: 11 (µM), S9 metabolic activation: with S9, exposure time: 3-4 hours | 0.34 | 1.22 | 79.3
concentration: 11 (µM), S9 metabolic activation: without S9, exposure time: 24 hours | 0.8 | 1.56 | 98.6
concentration: 13.7 (µM), S9 metabolic activation: with S9, exposure time: 3-4 hours | 0.12 | 1.32 | 78.3
concentration: 13.7 (µM), S9 metabolic activation: without S9, exposure time: 24 hours | 0.76 | 1.34 | 95.1
concentration: 17.2 (µM), S9 metabolic activation: with S9, exposure time: 3-4 hours | 0.26 | 1.14 | 72.9
concentration: 17.2 (µM), S9 metabolic activation: without S9, exposure time: 24 hours | 0.66 | 1.18 | 113
concentration: 21.5 (µM), S9 metabolic activation: with S9, exposure time: 3-4 hours | 0.3 | 0.9 | 77.1
concentration: 21.5 (µM), S9 metabolic activation: without S9, exposure time: 24 hours | 0.72 | 1.3 | 109
concentration: 26.8 (µM), S9 metabolic activation: with S9, exposure time: 3-4 hours | 0.34 | 2.16 | 77.1
concentration: 26.8 (µM), S9 metabolic activation: without S9, exposure time: 24 hours | 0.8 | 1.86 | 102
concentration: 33.6 (µM), S9 metabolic activation: with S9, exposure time: 3-4 hours | 0.2 | 2.38 | 82.1
concentration: 33.6 (µM), S9 metabolic activation: without S9, exposure time: 24 hours | 0.8 | 1.9 | 105
concentration: 41.9 (µM), S9 metabolic activation: with S9, exposure time: 3-4 hours | 0.38 | 2.22 | 76.2
concentration: 41.9 (µM), S9 metabolic activation: without S9, exposure time: 24 hours | 0.8 | 1.62 | 112
concentration: 52.4 (µM), S9 metabolic activation: with S9, exposure time: 3-4 hours | 0.36 | 2.04 | 67.5
concentration: 52.4 (µM), S9 metabolic activation: without S9, exposure time: 24 hours | 0.72 | 1.76 | 105
concentration: 65.5 (µM), S9 metabolic activation: with S9, exposure time: 3-4 hours | 0.1 | 1.22 | 86.2
concentration: 65.5 (µM), S9 metabolic activation: without S9, exposure time: 24 hours | 0.98 | 2.6 | 94.7
concentration: 81.9 (µM), S9 metabolic activation: with S9, exposure time: 3-4 hours | 0.16 | 1.14 | 79.8
concentration: 81.9 (µM), S9 metabolic activation: without S9, exposure time: 24 hours | 1.04 | 2.72 | 102
concentration: 102 (µM), S9 metabolic activation: with S9, exposure time: 3-4 hours | 0.34 | 1.88 | 71.7
concentration: 102 (µM), S9 metabolic activation: without S9, exposure time: 24 hours | 1.14 | 2.6 | 104
concentration: 128 (µM), S9 metabolic activation: with S9, exposure time: 3-4 hours | 0.08 | 1.22 | 67.3
concentration: 128 (µM), S9 metabolic activation: without S9, exposure time: 24 hours | 1.12 | 2.08 | 89.9
concentration: 160 (µM), S9 metabolic activation: with S9, exposure time: 3-4 hours | 0.22 | 1.6 | 46.3
concentration: 160 (µM), S9 metabolic activation: without S9, exposure time: 24 hours | 1.26 | 2.58 | 107
concentration: 200 (µM), S9 metabolic activation: with S9, exposure time: 3-4 hours | 0.22 | 1.58 | 58.9
concentration: 200 (µM), S9 metabolic activation: without S9, exposure time: 24 hours | 1.24 | 2.34 | 102

ClC(Cl)=C(c1ccc(Cl)cc1)c1ccc(Cl)cc1 [p,p'-DDE]
Details | hypodiploid nuclei frequency, CHO-K1 [3] [%] | micronucleus frequency, CHO-K1 [1] [%] | relative survival, CHO-K1 [2]
concentration: 4.5 (µM), S9 metabolic activation: with S9, exposure time: 3-4 hours | 0.24 | 1.56 | 183
concentration: 4.5 (µM), S9 metabolic activation: without S9, exposure time: 24 hours | 0.54 | 1.32 | 97.5
concentration: 5.63 (µM), S9 metabolic activation: with S9, exposure time: 3-4 hours | 0.3 | 1.32 | 141
concentration: 5.63 (µM), S9 metabolic activation: without S9, exposure time: 24 hours | 0.48 | 1.18 | 128
concentration: 7.04 (µM), S9 metabolic activation: with S9, exposure time: 3-4 hours | 0.12 | 1.14 | 176
concentration: 7.04 (µM), S9 metabolic activation: without S9, exposure time: 24 hours | 0.7 | 1.32 | 111
concentration: 8.8 (µM), S9 metabolic activation: with S9, exposure time: 3-4 hours | 0.32 | 2.16 | 175
concentration: 8.8 (µM), S9 metabolic activation: without S9, exposure time: 24 hours | 0.74 | 1.84 | 104
concentration: 11 (µM), S9 metabolic activation: with S9, exposure time: 3-4 hours | 0.22 | 1.44 | 187
concentration: 11 (µM), S9 metabolic activation: without S9, exposure time: 24 hours | 0.74 | 2.26 | 117
concentration: 13.7 (µM), S9 metabolic activation: with S9, exposure time: 3-4 hours | 0.2 | 1.12 | 153
concentration: 13.7 (µM), S9 metabolic activation: without S9, exposure time: 24 hours | 0.54 | 2.2 | 140
concentration: 17.2 (µM), S9 metabolic activation: with S9, exposure time: 3-4 hours | 0.26 | 1.52 | 157
concentration: 17.2 (µM), S9 metabolic activation: without S9, exposure time: 24 hours | 0.94 | 2.38 | 97.9
concentration: 21.5 (µM), S9 metabolic activation: with S9, exposure time: 3-4 hours | 0.2 | 1.74 | 140
concentration: 21.5 (µM), S9 metabolic activation: without S9, exposure time: 24 hours | 0.56 | 1.5 | 106
concentration: 26.8 (µM), S9 metabolic activation: with S9, exposure time: 3-4 hours | 0.38 | 2.12 | 196
concentration: 26.8 (µM), S9 metabolic activation: without S9, exposure time: 24 hours | 1.1 | 1.94 | 80.8
concentration: 33.6 (µM), S9 metabolic activation: with S9, exposure time: 3-4 hours | 0.32 | 2 | 144
concentration: 33.6 (µM), S9 metabolic activation: without S9, exposure time: 24 hours | 1.02 | 1.6 | 110
concentration: 41.9 (µM), S9 metabolic activation: with S9, exposure time: 3-4 hours | 0.24 | 2.24 | 166
concentration: 41.9 (µM), S9 metabolic activation: without S9, exposure time: 24 hours | 1.16 | 2.12 | 104
concentration: 52.4 (µM), S9 metabolic activation: with S9, exposure time: 3-4 hours | 0.44 | 2.28 | 156
concentration: 52.4 (µM), S9 metabolic activation: without S9, exposure time: 24 hours | 1.06 | 1.82 | 105
concentration: 65.5 (µM), S9 metabolic activation: with S9, exposure time: 3-4 hours | 0.26 | 1.76 | 189
concentration: 65.5 (µM), S9 metabolic activation: without S9, exposure time: 24 hours | 0.9 | 2.38 | 93.2
concentration: 81.9 (µM), S9 metabolic activation: with S9, exposure time: 3-4 hours | 0.3 | 2.68 | 196
concentration: 81.9 (µM), S9 metabolic activation: without S9, exposure time: 24 hours | 1 | 3.02 | 76
concentration: 102 (µM), S9 metabolic activation: with S9, exposure time: 3-4 hours | 0.3 | 1.48 | 141
concentration: 102 (µM), S9 metabolic activation: without S9, exposure time: 24 hours | 1.4 | 2.74 | 77.4
concentration: 128 (µM), S9 metabolic activation: with S9, exposure time: 3-4 hours | 0.26 | 1.84 | 127
concentration: 128 (µM), S9 metabolic activation: without S9, exposure time: 24 hours | 1.3 | 1.98 | 64.3
concentration: 160 (µM), S9 metabolic activation: with S9, exposure time: 3-4 hours | 0.28 | 1.86 | 109
concentration: 160 (µM), S9 metabolic activation: without S9, exposure time: 24 hours | 1.24 | 2.24 | 61.1
concentration: 200 (µM), S9 metabolic activation: with S9, exposure time: 3-4 hours | 0.36 | 3.96 | 70.5
concentration: 200 (µM), S9 metabolic activation: without S9, exposure time: 24 hours | – | – | 12.1

O=[N+]([O-])C(Br)(CO)CO [Bronopol]
Details | hypodiploid nuclei frequency, CHO-K1 [3] [%] | micronucleus frequency, CHO-K1 [1] [%] | relative survival, CHO-K1 [2]
concentration: 4.5 (µM), S9 metabolic activation: with S9, exposure time: 3-4 hours | 0.08 | 0.6 | 65.5
concentration: 4.5 (µM), S9 metabolic activation: without S9, exposure time: 24 hours | 0.36 | 2.24 | 117
concentration: 5.63 (µM), S9 metabolic activation: with S9, exposure time: 3-4 hours | 0.2 | 0.76 | 83.4
concentration: 5.63 (µM), S9 metabolic activation: without S9, exposure time: 24 hours | 0.42 | 1.88 | 128
concentration: 7.04 (µM), S9 metabolic activation: with S9, exposure time: 3-4 hours | 0.16 | 0.56 | 66.3
concentration: 7.04 (µM), S9 metabolic activation: without S9, exposure time: 24 hours | 0.32 | 1.48 | 119
concentration: 8.8 (µM), S9 metabolic activation: with S9, exposure time: 3-4 hours | 0.22 | 0.96 | 74.3
concentration: 8.8 (µM), S9 metabolic activation: without S9, exposure time: 24 hours | 0.62 | 1.62 | 132
concentration: 11 (µM), S9 metabolic activation: with S9, exposure time: 3-4 hours | 0.3 | 1.06 | 68.7
concentration: 11 (µM), S9 metabolic activation: without S9, exposure time: 24 hours | 0.48 | 1.82 | 121
concentration: 13.7 (µM), S9 metabolic activation: with S9, exposure time: 3-4 hours | 0.22 | 0.7 | 84.2
concentration: 13.7 (µM), S9 metabolic activation: without S9, exposure time: 24 hours | 0.52 | 1.54 | 119
concentration: 17.2 (µM), S9 metabolic activation: with S9, exposure time: 3-4 hours | 0.17 | 1.09 | 82
concentration: 17.2 (µM), S9 metabolic activation: without S9, exposure time: 24 hours | 0.62 | 1.46 | 119
concentration: 21.5 (µM), S9 metabolic activation: with S9, exposure time: 3-4 hours | 0.24 | 1.01 | 71
concentration: 21.5 (µM), S9 metabolic activation: without S9, exposure time: 24 hours | 0.56 | 1.64 | 132
concentration: 26.8 (µM), S9 metabolic activation: with S9, exposure time: 3-4 hours | 0.18 | 1.11 | 57.2
concentration: 26.8 (µM), S9 metabolic activation: without S9, exposure time: 24 hours | 0.34 | 1.06 | 113
concentration: 33.6 (µM), S9 metabolic activation: with S9, exposure time: 3-4 hours | 0.27 | 1.3 | 55.8
concentration: 33.6 (µM), S9 metabolic activation: without S9, exposure time: 24 hours | 0.56 | 1.52 | 124
concentration: 41.9 (µM), S9 metabolic activation: with S9, exposure time: 3-4 hours | 0.33 | 1.71 | 50.4
concentration: 41.9 (µM), S9 metabolic activation: without S9, exposure time: 24 hours | 0.68 | 2.02 | 110
concentration: 52.4 (µM), S9 metabolic activation: with S9, exposure time: 3-4 hours | – | – | 22.1
concentration: 52.4 (µM), S9 metabolic activation: without S9, exposure time: 24 hours | 0.72 | 4.04 | 62.9
concentration: 65.5 (µM), S9 metabolic activation: with S9, exposure time: 3-4 hours | – | – | 13.6
concentration: 65.5 (µM), S9 metabolic activation: without S9, exposure time: 24 hours | – | – | 25.3
concentration: 81.9 (µM), S9 metabolic activation: with S9, exposure time: 3-4 hours | – | – | 1.24
concentration: 81.9 (µM), S9 metabolic activation: without S9, exposure time: 24 hours | – | – | 2.1
concentration: 200 (µM), S9 metabolic activation: with S9, exposure time: 3-4 hours | – | – | 0.02
